# According to the supplement of paper PMC12423691:
# Some of the results follow. Binding of human transcription factors and regulators to the viral nucleoprotein by AlphaScreen, crude cell-free proteins, amounts not normalised, one pass. Fold of the Venus control; higher = more signal. No active / inactive call. Single-pass screen; sequences are the whole Swiss-Prot entries looked up by name.
# B1: PRKCZ, Q05513 (protein)
# chain: MPSRTGPKMEGSGGRVRLKAHYGGDIFITSVDAATTFEELCEEVRDMCRLHQQHPLTLKWVDSEGDPCTVSSQMELEEAFRLARQCRDEGLIIHVFPSTPEQPGLPCPGEDKSIYRRGARRWRKLYRANGHLFQAKRFNRRAYCGQCSERIWGLARQGYRCINCKLLVHKRCHGLVPLTCRKHMDSVMPSQEPPVDDKNEDADLPSEETDGIAYISSSRKHDSIKDDSEDLKPVIDGMDGIKISQGLGLQDFDLIRVIGRGSYAKVLLVRLKKNDQIYAMKVVKKELVHDDEDIDWVQTEKHVFEQASSNPFLVGLHSCFQTTSRLFLVIEYVNGGDLMFHMQRQRKLPEEHARFYAAEICIALNFLHERGIIYRDLKLDNVLLDADGHIKLTDYGMCKEGLGPGDTTSTFCGTPNYIAPEILRGEEYGFSVDWWALGVLMFEMMAGRSPFDIITDNPDMNTEDYLFQVILEKPIRIPRFLSVKASHVLKGFLNKDPKERLGCRPQTGFSDIKSHAFFRSIDWDLLEKKQALPPFQPQITDDYGLDNFDTQFTSEPVQLTPDDEDAIKRIDQSEFEGFEYINPLLLSTEESV
# B2: HMG20A, Q9NP66 (protein)
# chain: MENLMTSSTLPPLFADEDGSKESNDLATTGLNHPEVPYSSGATSSTNNPEFVEDLSQGQLLQSESSNAAEGNEQRHEDEQRSKRGGWSKGRKRKKPLRDSNAPKSPLTGYVRFMNERREQLRAKRPEVPFPEITRMLGNEWSKLPPEEKQRYLDEADRDKERYMKELEQYQKTEAYKVFSRKTQDRQKGKSHRQDAARQATHDHEKETEVKERSVFDIPIFTEEFLNHSKAREAELRQLRKSNMEFEERNAALQKHVESMRTAVEKLEVDVIQERSRNTVLQQHLETLRQVLTSSFASMPLPGSGETPTVDTIDSYMNRLHSIILANPQDNENFIATVREVVNRLDR
# B3: SP100, P23497 (protein)
# chain: MAGGGGDLSTRRLNECISPVANEMNHLPAHSHDLQRMFTEDQGVDDRLLYDIVFKHFKRNKVEISNAIKKTFPFLEGLRDRDLITNKMFEDSQDSCRNLVPVQRVVYNVLSELEKTFNLPVLEALFSDVNMQEYPDLIHIYKGFENVIHDKLPLQESEEEEREERSGLQLSLEQGTGENSFRSLTWPPSGSPSHAGTTPPENGLSEHPCETEQINAKRKDTTSDKDDSLGSQQTNEQCAQKAEPTESCEQIAVQVNNGDAGREMPCPLPCDEESPEAELHNHGIQINSCSVRLVDIKKEKPFSNSKVECQAQARTHHNQASDIIVISSEDSEGSTDVDEPLEVFISAPRSEPVINNDNPLESNDEKEGQEATCSRPQIVPEPMDFRKLSTFRESFKKRVIGQDHDFSESSEEEAPAEASSGALRSKHGEKAPMTSRSTSTWRIPSRKRRFSSSDFSDLSNGEELQETCSSSLRRGSGSQPQEPENKKCSCVMCFPKGVPRSQEARTESSQASDMMDTMDVENNSTLEKHSGKRRKKRRHRSKVNGLQRGRKKDRPRKHLTLNNKVQKKRWQQRGRKANTRPLKRRRKRGPRIPKDENINFKQSELPVTCGEVKGTLYKERFKQGTSKKCIQSEDKKWFTPREFEIEGDRGASKNWKLSIRCGGYTLKVLMENKFLPEPPSTRKKRILESHNNTLVDPCEEHKKKNPDASVKFSEFLKKCSETWKTIFAKEKGKFEDMAKADKAHYEREMKTYIPPKGEKKKKFKDPNAPKRPPLAFFLFCSEYRPKIKGEHPGLSIDDVVKKLAGMWNNTAAADKQFYEKKAAKLKEKYKKDIAAYRAKGKPNSAKKRVVKAEKSKKKKEEEEDEEDEQEEENEEDDDK
# Target: nucleoprotein N of Crimean-Congo hemorrhagic fever virus
# Assay: AlphaScreen luminescence signal relative to Venus negative control (fold); higher = stronger binding to CCHFV N
# Method: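 AlphaScreen binding of cell-free made, FLAG-GST-tagged human transcription factors and regulators (crude translation products) to biotinylated N protein; signal as fold of the FLAG-GST-Venus control. One pass.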
row,Binder,AlphaScreen luminescence signal
1,B1,3.26
2,B2,2.23
3,B3,1.02
